{"source": "PubChem BioAssay AID493208", "about": "(National Center for Advancing Translational Sciences (NCATS), 2011)", "note": "About 340 (0.77%) of roughly 44,000 compounds were called active. Not shown: some 5% with an inconclusive outcome. Calls follow the shape of the dose curve; as a rule, active = well fitted inhibition curve with a large enough effect; inconclusive = small, poorly fitted or top-dose-only effect; inactive = flat fitted curve, though single readings scatter. The list shows a part of the results."}
{"assay": "Acumen qHTS Assay for Inhibitors of the mTORC1 Signaling Pathway in MEF (Tsc2-/-, p53-/-) Cells: Sytravon;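 also: plate controls were DMSO for no effect and rapamycin for full effect; nearly all actives have a fitted effect of over 50% in size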", "details": "phospho-rpS6 immunofluorescence/PI, 24 h; series mostly up to 38.3 µM; activity change, negative = inhibition: at the top concentration", "method_in_brief": "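Compounds act on Tsc2-/-, p53-/- fibroblasts carrying an empty vector for 24 h before fixation and dual staining for phospho-S6 and DNA (propidium iodide). Values are percentages of cells above a rapamycin-defined pS6/PI threshold.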"}
{"smiles": "COc1ccc(Cn2c(CCC(=O)Nc3ccc(C)c(C)c3)nc3cccnc32)cc1", "activity change, negative = inhibition": "inactive: 1.39%"}
{"smiles": "CCCN(CCC)C(=O)CN1C(=O)CSc2ccc(S(=O)(=O)N3CCC(C)CC3)cc21", "activity change, negative = inhibition": "inactive: 0.325%"}
{"smiles": "CC(=O)N1CCc2cc(S(=O)(=O)NC(CC(C)C)C(=O)NCCc3ccc(C)cc3)ccc21", "note": "(stereo unspecified)", "activity change, negative = inhibition": "inactive: 0.218%"}
{"smiles": "COc1cccc(C(=O)c2cn(CC(=O)Nc3cccc(C(F)(F)F)c3)c3nc(C)ccc3c2=O)c1", "activity change, negative = inhibition": "inactive: 0%"}
{"smiles": "CCN(CC)S(=O)(=O)c1ccc2c(c1)nc(CN(C)C(=O)Nc1cccc(Cl)c1)n2C", "activity change, negative = inhibition": "inactive: 19.6%"}
{"smiles": "CCS(=O)(=O)N1CC(=O)N(c2cc(C)ccc2C)C(C)(C(=O)NC2CCCCC2)C1", "note": "(stereo unspecified)", "activity change, negative = inhibition": "inactive: 3.29%"}
{"smiles": "Cc1ccc(Cl)cc1NC(=O)N1CCC2(CC1)Oc1ccccc1C(=O)N2Cc1ccccc1F", "activity change, negative = inhibition": "inactive: -0.605%"}
{"smiles": "COc1ccc(-n2nnc(-c3nsc(NC(=O)c4cccs4)n3)c2C)cc1OC", "activity change, negative = inhibition": "inactive: 7.12%"}
{"smiles": "Cc1cccc(NC(=O)C(=O)NCCc2sc(-c3ccccc3)nc2C)c1C", "activity change, negative = inhibition": "inactive: -0.348%"}
{"smiles": "Cc1c(Cl)cccc1NC(=O)C(CCS(C)(=O)=O)N1Cc2ccccc2C1=O", "note": "(stereo unspecified)", "activity change, negative = inhibition": "inactive: 0.645%"}
{"smiles": "COc1ccc(-c2cn3c(n2)sc2cc(C(=O)NC4CCCCCC4)ccc23)cc1", "activity change, negative = inhibition": "inactive: -13.8%"}
{"smiles": "Cc1ccc(S(=O)(=O)c2c(Nc3cc(C)ccc3C)sc(C(=O)c3ccc4c(c3)OCO4)c2N)cc1", "activity change, negative = inhibition": "inactive: 0.35%"}
{"smiles": "CC1CCCN(c2c(S(=O)(=O)c3ccccc3)cnc3ccc(Cl)cc23)C1", "note": "(stereo unspecified)", "activity change, negative = inhibition": "inactive: -6.88%"}
{"smiles": "CC(CNC(=O)c1cc(-c2ccccc2)n[nH]1)c1ccccc1", "note": "(stereo unspecified)", "activity change, negative = inhibition": "inactive: -4.3%"}
{"smiles": "Cc1cccc(N2CCN(C(=O)c3c(C)oc4ncnc(N5CCOCC5)c34)CC2)c1C", "activity change, negative = inhibition": "inactive: -9.43%"}
{"smiles": "Nc1cc(=O)nc(SCC(=O)Nc2ccc(F)cc2)n1-c1cccc(Cl)c1", "activity change, negative = inhibition": "inactive: -9.67%"}
{"smiles": "COc1ccc(C)cc1NC(=O)c1cc(S(=O)(=O)N2CCC(C)CC2)cn1C", "activity change, negative = inhibition": "inactive: 4.22%"}
{"smiles": "COc1ccc(CCN2C(=O)N(c3ccc(C)cc3)C(=O)C2CC(=O)Nc2ccc(F)cc2)cc1", "note": "(stereo unspecified)", "activity change, negative = inhibition": "inactive: -13.1%"}
{"smiles": "Cc1nn(C(=O)COc2ccccc2Br)c(C)c1Sc1ccccc1", "activity change, negative = inhibition": "inactive: -9.96%"}
{"smiles": "COc1ccc(CN2C(=O)N(c3ccc(F)cc3)C(=O)C2CC(=O)Nc2cc(OC)cc(OC)c2)cc1", "note": "(stereo unspecified)", "activity change, negative = inhibition": "inactive: -9.05%"}
{"smiles": "CCc1ccc(NC(=O)C(NS(=O)(=O)c2cccc3nsnc23)c2ccccc2)cc1", "note": "(stereo unspecified)", "activity change, negative = inhibition": "inactive: -0.27%"}
{"smiles": "COc1cccc(NC(=O)c2sc3nc(C)c(C(=O)Nc4ccc(Cl)cc4)c(-c4ccc(Br)cc4)c3c2N)c1", "activity change, negative = inhibition": "inactive: 0%"}
{"smiles": "O=C(CSc1n[nH]c(-c2ccccc2)n1)N1CCN(c2ccccc2F)CC1", "activity change, negative = inhibition": "inactive: 0%"}
{"smiles": "COc1ccc2c(CNCc3ccccc3OC)c(C(=O)O)n(Cc3ccc(F)cc3Cl)c2c1", "activity change, negative = inhibition": "inactive: -12.5%"}
{"smiles": "CCc1ccc(NC(=O)C2CCC(CNS(=O)(=O)c3ccc4c(c3)C(C)(C)C(=O)N4C)CC2)cc1", "note": "(stereo unspecified)", "activity change, negative = inhibition": "inactive: -0.0737%"}
{"smiles": "Cc1cccc(NC(=O)c2sc3nc(-c4ccccc4)cn3c2C)c1C", "activity change, negative = inhibition": "inactive: -4.14%"}
{"smiles": "COc1ccc(-c2c3c(=O)n(C)c(=O)n(C)c3c3n2-c2ccccc2NC3c2ccc(O)cc2O)cc1", "note": "(stereo unspecified)", "activity change, negative = inhibition": "inactive: -3.74%"}
{"smiles": "COc1ccc2c(Sc3ccc(C)cc3)c(C(=O)NCCc3ccccc3)[nH]c2c1", "activity change, negative = inhibition": "inactive: -2.07%"}
{"smiles": "COc1ccc(N(CC(=O)Nc2cccc(C(C)=O)c2)S(=O)(=O)c2ccccc2)c(OC)c1", "activity change, negative = inhibition": "inactive: 3.46%"}
{"smiles": "Cc1cc(OCCCn2c(CCNC(=O)C3CCCCC3)nc3ccccc32)ccc1Cl", "activity change, negative = inhibition": "inactive: 1.4%"}
{"smiles": "CCOc1ccc(C(=O)N(Cc2cc(OC)c(OC)c(OC)c2)c2ccccn2)cc1", "activity change, negative = inhibition": "inactive: -10%"}
{"smiles": "OCc1cnc(SCc2ccc(F)cc2)n1Cc1ccc(F)cc1", "activity change, negative = inhibition": "inactive: -1.71%"}
{"smiles": "O=C(CSc1nc(-c2cccs2)nc2cc(=O)[nH]n12)Nc1cccc(C(F)(F)F)c1", "activity change, negative = inhibition": "inactive: 3.17%"}
{"smiles": "O=C(Nc1nc2n(n1)C(c1ccc(Cl)cc1)C=C(c1ccccc1)N2)c1ccco1", "note": "(stereo unspecified)", "activity change, negative = inhibition": "inactive: 0.625%"}
{"smiles": "Cc1nn(C)c2c1c(C(F)(F)F)cc(=O)n2C(C)C(=O)NCCc1ccccc1", "note": "(stereo unspecified)", "activity change, negative = inhibition": "inactive: -1.54%"}
{"smiles": "COc1ccc(CCNC(c2ccc(F)cc2)c2nnc(-c3ccccc3Cl)o2)cc1OC", "note": "(stereo unspecified)", "activity change, negative = inhibition": "inactive: 0.623%"}
{"smiles": "O=C(c1ccc(F)cc1)N1CCC(c2nc(-c3ccc(S(=O)(=O)N4CCCC4)cc3)no2)CC1", "activity change, negative = inhibition": "inactive: -5.03%"}
{"smiles": "O=C(Cn1cnc2onc(-c3ccc(F)cc3)c2c1=O)Nc1ccc(F)c(Cl)c1", "activity change, negative = inhibition": "inactive: 3.23%"}
{"smiles": "O=C(CN1c2ccccc2S(=O)(=O)c2ccccc21)Nc1ccccc1Cl", "activity change, negative = inhibition": "inactive: -1.22%"}
{"smiles": "CCc1nn(CC(=O)NCCCN2CCN(CC)CC2)c(=O)c2cc3occc3n12", "activity change, negative = inhibition": "inactive: 0.0403%"}
{"smiles": "CCOc1ccc(S(=O)(=O)c2cn(Cc3ccccc3C)c3ccc(OC)cc3c2=O)cc1", "activity change, negative = inhibition": "inactive: -7.75%"}
{"smiles": "CCCOc1ccc(-c2nonc2NC(=O)c2oc3ccc(Cl)cc3c2C)cc1OCCC", "activity change, negative = inhibition": "inactive: -3.33%"}
{"smiles": "O=C(c1ccc2c(c1)N(Cc1c(F)cccc1Cl)C(=O)c1ccccc1S2)N1CCOCC1", "activity change, negative = inhibition": "inactive: -0.063%"}
{"smiles": "CCc1cccc(NC(=O)C2Cc3ccccc3N2C(=O)c2ccccc2)c1", "note": "(stereo unspecified)", "activity change, negative = inhibition": "inactive: -12.9%"}
{"smiles": "Cc1ccc2c(c1)c(CC(=O)Nc1ccc(C)c(F)c1)c(C(=O)O)n2C", "activity change, negative = inhibition": "inactive: -2.89%"}
{"smiles": "Cc1ccc2nc(COc3ccccc3NC(=O)c3ccccc3F)cc(=O)n2c1", "activity change, negative = inhibition": "inactive: 0.295%"}
